Source: PubChem BioAssay AID504466 (National Center for Advancing Translational Sciences (NCATS), 2011)
Screen size: about 330,000 compounds; about 4,200 (1.3%) were called active. Inconclusive results, whose numbers are uncertain, are shown with a selection of clear calls. Calls come from the whole dose curve; as a rule, active = well fitted activation curve with a large enough effect; inconclusive = small, poorly fitted or top-dose-only effect; inactive = no such curve, though single readings can be large or run the other way. Potencies beside an inconclusive call are fits to weak or partial responses and may not hold up.

Assay: qHTS screen for small molecules that induce genotoxicity in human embryonic kidney (HEK293T) cells expressing luciferase-tagged ELG1; note: nearly all actives have a fitted effect of over 60% in size; for activity change, positive = activation: % of control where 0% means no effect
Settings: HEK293T ELG1-luciferase reporter, luminescence, 16 h; series mostly up to 46 µM; activity change, positive = activation: at the top concentration
How it was run: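 16 hr compound incubation (37 °C, 5% CO2) of HEK293T cells carrying luciferase-tagged ELG1; luciferase then measured by ONE-Glo luminescence after 30 min at RT.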
Potency is the fitted concentration of half-maximal effect; tags give direction and shape of the fitted curve.

Structure (SMILES)	Potency	activity change, positive = activation
CCOc1ccc2nc(Cl)c(/C=C/C(=O)c3ccco3)cc2c1	inconclusive: 25.9 µM [activator, partial curve, poor fit]	
CN(Cc1ccccc1)C(=O)C(C(=O)c1ccc(F)cc1)n1cc(Cl)ccc1=O (centres undefined)	inconclusive: 18.3 µM [activator, partial curve, poor fit]	
CCCCOC(=O)Nc1nc2ccc(OC)cc2s1	inconclusive: 5.17 µM [activator, full curve]	
CCN(CC)C(=O)CSc1ncnc2sc(-c3ccccc3)cc12	inconclusive: 14.6 µM [activator, partial curve]	
O=C(c1cc(-c2ccccc2O)on1)N1CCCC1	inconclusive: 5.17 µM [activator, partial curve]	
N#Cc1c(/N=C/N2CCOCC2)sc2c1CCCCC2	active: 5.8 µM	
COc1ccc(S(=O)(=O)NC2CC(=O)N(c3cccc(F)c3)C2)cc1OC (centres undefined)		inactive: -1.54%
CCCCN1C=CC(=C2N=c3cccc([N+](=O)[O-])c3=N2)C=C1	inconclusive: 16.4 µM [activator, partial curve]	
O=[N+]([O-])c1cccc(N/N=C/c2cccc(O)c2O)c1	inconclusive: 20.6 µM [activator, single point]	
Cc1ccccc1OCCOc1ccccc1C=C(C#N)C#N	inconclusive: 18.4 µM [activator, single point]	
O=C(OCn1ncc(Br)c(Br)c1=O)c1ccc(F)cc1	inconclusive: 3.66 µM [activator, single point]	
Cc1c(C)n(CC(O)CN2C(=O)c3ccccc3S2(=O)=O)c2ccccc12 (centres undefined)		inactive: -4.93%
COc1cccc(NC(=O)Cn2c(=O)n(-c3cc(OC)c(OC)c(OC)c3)c(=O)c3ccccc32)c1	inconclusive: 18.3 µM [activator, partial curve]	
Nc1c(C(=O)Nc2ccc3c(c2)OCCO3)nnn1Cc1ccc(F)cc1	inconclusive: 7.3 µM [activator, partial curve, poor fit]	
Cc1ccc(OCc2cc(C(=O)N3CCC(c4ccccc4Cl)C3)no2)cc1C (centres undefined)	inconclusive: 32.6 µM [activator, partial curve, poor fit]	
Cc1ccc(NC(=O)NCc2cccn2C)cc1C	inconclusive: 20.6 µM [activator, partial curve, poor fit]	
Cn1nc(C(=O)N2CCCCC2)c2c1-c1ccccc1S(=O)(=O)C2		inactive: -0.666%
Nc1nonc1-c1nc2ccccc2n1Cc1ccccc1		inactive: 10.5%
Cc1cc(OCc2cc(C(=O)NC(C)c3c(C)nn(C)c3C)no2)cc(C)c1Cl (centres undefined)	inconclusive: 2.91 µM [activator, partial curve, poor fit]	
Cn1nc(-c2ccccc2)c(C#N)c1Sc1cccc(Cl)c1		inactive: -6.12%
O=C(O)C(=O)/C(=C\c1ccccc1)c1ccc2ccccc2n1	active: 9.2 µM	
CCCN=C(C)C1=C(O)c2ccccc2C1=O	inconclusive: 29.1 µM [activator, partial curve, poor fit]	

Structure (SMILES)	Potency	activity change, positive = activation
Cc1cc2nc(C3CCCN(C(=O)NCc4ccccc4)C3)[nH]c2cc1C (centres undefined)	inconclusive: 16.4 µM [activator, partial curve, poor fit]	
Cn1c(NC(=O)CCC2CCCCC2)cc(=O)n(C)c1=O	active: 3.26 µM	
COc1ccc(C2=NN(C(=O)COC(=O)c3ccc(NC(=O)CC#N)cc3)C(c3ccco3)C2)cc1 (centres undefined)		inactive: 1.57%
CC(=O)N1N=C(c2ccccc2)OC1c1ccc([N+](=O)[O-])s1 (centres undefined)	inconclusive: 23.1 µM [activator, single point]	
C/C(=N\Nc1cc(N2CCOCC2)ncn1)c1ccccc1	inconclusive: 1 µM [activator, partial curve, poor fit]	
O=C(Nc1ccc2c(c1)OCCO2)c1cnc2n(c1=O)CCS2	active: 9.2 µM	
N/C(=N\OC(=O)c1cccs1)c1cccc(Br)c1	inconclusive: 18.3 µM [activator, partial curve]	
Cc1cccc(CSc2nc3[nH]ncc3c(=O)[nH]2)c1	inconclusive: 20.6 µM [activator, partial curve, poor fit]	
COc1ccc(Cc2nc(C(=O)Nc3ccc(OC)cc3)cs2)cc1	inconclusive: 29.1 µM [activator, partial curve, poor fit]	
CC(=O)Nc1ccc(N/C=C/C(=O)c2ccc(C)o2)cc1	inconclusive: 20.6 µM [activator, partial curve, poor fit]	
CCn1c(=NC(=O)CS(=O)(=O)c2ccc(C)cc2)sc2cccc(OC)c21	inconclusive: 32.6 µM [activator, partial curve, poor fit]	
O=C(O)c1ccc(/C=N/Nc2ccc(F)cc2F)cc1	inconclusive: 1.3 µM [activator, partial curve]	
Cc1occc1-c1nnc(SCc2cc(=O)n3cc(Br)ccc3n2)n1C		inactive: -3.17%
CCCN(CCC)C(=O)C[n+]1cccc(/C=N/O)c1		inactive: -0.145%
Fc1ccc(-c2cnn3c(-c4ccncc4)ccnc23)cc1		inactive: 6.84%
C=CCSc1nc2c(c(=O)[nH]c(=O)n2C)n1Cc1ccc(C)cc1	inconclusive: 29.1 µM [activator, single point]	
Cc1cc(Cn2nc(C(=O)NCc3cccc(C(F)(F)F)c3)cc2-c2ccccc2)on1		inactive: -5.41%
O=C(N/N=C\c1c(O)ccc2ccccc12)c1cncc(Br)c1	inconclusive: 6.51 µM [activator, full curve, poor fit]	
CN1CCN(CCCN2c3ccccc3Sc3ccc(Cl)cc32)CC1	inconclusive: 14.6 µM [activator, partial curve, poor fit]	
COc1ccc(OCc2cc(/C=N\NC(=O)c3ccccc3)ccc2OC)cc1	inconclusive: 14.6 µM [activator, partial curve]	
O=C(Nc1ccc2c(c1)OCCO2)c1ccc2ccccc2n1	inconclusive: 2.31 µM [activator, partial curve, poor fit]	
COc1cccc(-n2c(N)c(-c3nc4ccccc4[nH]3)sc2=S)c1		inactive: -10.8%
